In patent publication US6660767B2, “Coumarin compounds as microtubule stabilizing agents and therapeutic uses thereof” (The Regents of the University of California, priority 2001, dated 2003):

Test system: microtubule plus ends
Assay: Steady-state dynamic instability of individual microtubules by DIC video microscopy
Type: biochemical, bovine
Details: plus ends at steady state
Method: Analysis of dynamic instability behavior of individual microtubules at steady state was conducted with real-time DIC video microscopy as described by Walker et al. (1988) J. Cell Biol. 107:1437-1448 and Panda et al. (1995) Biochem 34:9921-9929, both of which are herein incorporated by reference. A Hamamatsu C2400 Newvicon video camera was used to capture the images of microtubules which were enhanced with a Hamamatsu DVS3000 digital image processor. Analysis of length changes was performed using a video analysis software program designed by N. Gliksman at the University of North Carolina.
Microtubules were grown at the ends of sea urchin flagellar axonemal fragments (seeds) to distinguish the plus and minus ends. The microtubules were allowed to achieve polymer-mass steady state which took less than about 30 minutes, and analysis of the steady-state dynamics was carried out for about 30 minutes to about 45 minutes without deterioration of the microtubules or any detectable changes in dynamics. The individual dynamic instability parameters were analyzed quantitatively. These included the rates of growing and shortening, the lengths of time microtubules grow and shorten, the mean lengths of each growing or shortening event, the transition frequencies from the growing or attenuated state to shortening or from shortening to the growing or attenuated or paused state, the percentage of total time the microtubules spend growing, shortening, or in the attenuated state, and the overall dynamicity, the combined total observable growing and shortening per unit time. See Kowalski, R. J. et al. (1993) 26(4):282-290, which is herein incorporated by reference.
Tubulin pellets were thawed and centrifuged at 4° C. to remove any aggregated or denatured tubulin. The purified tubulin was mixed with axoneme seeds and polymerized in PMME buffer (87 mM PIPES, 36 mM MES, 1.4 mM MgCl2, 1 mM EGTA, pH 6.8) comprising 1 mM GTP in the presence or absence of coumarin compounds. […].
After 35 minutes of incubation, samples of microtubule suspensions (2.5 μl and 2.0 μl) were prepared for video microscopy, and the dynamics of individual microtubules were recorded at 37° C. as described previously (Panda et al. (1995) Biochem. 34:9921-9929, which is herein incorporated by reference).
The microtubule was determined to be in a growing phase if the microtubule increased in length by >0.2 μM at a rate >0.15 μm/min and in a shortening phase if the microtubule shortened in length by >0.2 μM at a rate >0.3 μm/min. Length changes equal to or less than 0.2 μm over the duration of six data points were considered as attenuation phases. The same tubulin preparation for all experiments was used and for preliminary experiments, an average of about 10 to about 15 microtubules was measured for each experimental condition, and for the results provided in Table 1, about 20 to about 30 microtubules were analyzed for each experimental condition.
The catastrophe frequency (transition from the growing or attenuated state to shortening) was calculated by dividing the number of catastrophes by the sum of the total time spent in the growing plus attenuated states for all microtubules for a particular condition. The rescue frequency (transition from shortening to growing or attenuation, excluding new growth from a seed) was calculated by dividing the total number of rescue events by the total time spent shortening for all microtubules for a particular condition. Control microtubules alternated between phases of growing and shortening, but also spent a small percentage of time in an attenuated state.

## O=c1oc2ccccc2c(O)c1Cc1c(O)c2ccccc2oc1=O [dicoumarol]
Dicoumarol 0.04 μM
  Mean Duration Shortening: 0.37 ± 0.13 min
  Mean Rate Growing: 0.61 ± 0.07 μm/min
  Mean Rate Shortening: 18.90 μm/min
  Total Time Attenuated: 17.7%
  Total Time Growing: 60.3%
  Total Time Shortening: 22.0%
  Transition Frequencies Catastrophe: 0.70 events/min
  Transition Frequencies Rescue: 2.00 events/min
Dicoumarol 0.1 μM
  Mean Duration Shortening: 1.10 ± 0.43 min
  Mean Rate Growing: 0.53 ± 0.10 μm/min
  Mean Rate Shortening: 12.10 μm/min
  Total Time Attenuated: 37.6%
  Total Time Growing: 34.7%
  Total Time Shortening: 27.8%
  Transition Frequencies Catastrophe: 0.22 events/min
  Transition Frequencies Rescue: 0.38 events/min
Dicoumarol 1.0 μM
  Mean Duration Shortening: 0.86 ± 0.34 min
  Mean Rate Growing: 0.63 ± 0.08 μm/min
  Mean Rate Shortening: 7.80 ± 4.80 μm/min
  Total Time Attenuated: 50.5%
  Total Time Growing: 32.3%
  Total Time Shortening: 17.3%
  Transition Frequencies Catastrophe: 0.24 events/min
  Transition Frequencies Rescue: 1.03 events/min
Dicoumarol 10.0 μM
  Mean Duration Shortening: 0.51 ± 0.15 min
  Mean Rate Growing: 0.63 ± 0.10 μm/min
  Mean Rate Shortening: 7.40 ± 2.40 μm/min
  Total Time Attenuated: 71.2%
  Total Time Growing: 20.7%
  Total Time Shortening: 8.1%
  Transition Frequencies Catastrophe: 0.11 events/min
  Transition Frequencies Rescue: 1.20 events/min
Dicoumarol 50.0 μM
  Mean Duration Shortening: 1.40 ± 0.07 min
  Mean Rate Growing: 0.54 ± 0.07 μm/min
  Mean Rate Shortening: 1.10 ± 0.20 μm/min
  Total Time Attenuated: 51.3%
  Total Time Growing: 41.9%
  Total Time Shortening: 6.8%
  Transition Frequencies Catastrophe: 0.07 events/min
  Transition Frequencies Rescue: 0.80 events/min
